Assay results as given in publication PMC4336329 (PLoS ONE, 2015).
Among all 310,000 compounds or so, about 14,000 (4.5%) showed an effect of 50% or more. Effects have a minus sign here. The list shows a part of the results.

molecular target: human ether-à-go-go-related gene (hERG) potassium channel (human, UniProt Q12809); assay: primary screen, population patch clamp on CHO cells stably expressing hERG
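Also: peak tail current of the secondary pulse compared with the same well before compound.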

Sequence of human ether-à-go-go-related gene (hERG) potassium channel (Q12809 whole entry, looked up): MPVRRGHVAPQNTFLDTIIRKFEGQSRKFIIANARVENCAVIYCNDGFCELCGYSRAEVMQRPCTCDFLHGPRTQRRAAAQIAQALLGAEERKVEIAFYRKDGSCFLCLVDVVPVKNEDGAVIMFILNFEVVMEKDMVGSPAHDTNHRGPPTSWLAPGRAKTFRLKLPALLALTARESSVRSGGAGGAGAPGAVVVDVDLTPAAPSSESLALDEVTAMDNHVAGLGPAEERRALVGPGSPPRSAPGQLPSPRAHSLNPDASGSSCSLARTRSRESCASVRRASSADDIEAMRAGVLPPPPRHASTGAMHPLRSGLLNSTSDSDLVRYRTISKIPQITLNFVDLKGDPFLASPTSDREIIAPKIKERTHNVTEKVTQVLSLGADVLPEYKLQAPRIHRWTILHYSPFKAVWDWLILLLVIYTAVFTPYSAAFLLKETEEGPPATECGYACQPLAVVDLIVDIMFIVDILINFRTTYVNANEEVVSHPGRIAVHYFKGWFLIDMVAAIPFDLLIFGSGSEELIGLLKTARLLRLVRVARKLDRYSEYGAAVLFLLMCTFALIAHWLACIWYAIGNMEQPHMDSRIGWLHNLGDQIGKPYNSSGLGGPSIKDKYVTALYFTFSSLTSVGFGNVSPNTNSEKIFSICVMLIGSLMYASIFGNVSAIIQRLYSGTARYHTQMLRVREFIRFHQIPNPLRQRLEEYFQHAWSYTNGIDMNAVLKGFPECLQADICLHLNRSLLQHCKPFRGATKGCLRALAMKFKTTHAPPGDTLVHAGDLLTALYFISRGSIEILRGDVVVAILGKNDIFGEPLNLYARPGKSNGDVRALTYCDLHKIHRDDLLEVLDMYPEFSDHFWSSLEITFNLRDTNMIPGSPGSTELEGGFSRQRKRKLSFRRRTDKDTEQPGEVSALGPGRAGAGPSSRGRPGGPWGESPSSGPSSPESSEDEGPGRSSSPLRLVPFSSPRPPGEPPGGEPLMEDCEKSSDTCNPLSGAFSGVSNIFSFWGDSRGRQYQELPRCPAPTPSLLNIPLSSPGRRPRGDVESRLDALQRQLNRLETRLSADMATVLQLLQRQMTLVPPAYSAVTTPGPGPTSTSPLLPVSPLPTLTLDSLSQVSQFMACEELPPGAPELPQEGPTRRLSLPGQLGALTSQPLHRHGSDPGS

Structure (SMILES)	hERG current change (%, negative = inhibition) at 10uM [%]
O=C(O)COCC(=O)N1CCCN(c2nccc(C(F)(F)F)n2)CC1	17.7
Cc1[nH]n(-c2ccc(Cl)cc2)c(=O)c1C=Nc1ccc(S(=O)(=O)N2CCOCC2)cc1	-16.6
CCOC(=O)c1cnn(-c2nc(SC)nc3sc4c(c23)CCCC4)c1N	-7.67
CC(=O)Nc1ccc(Nc2cc(C)nc3c(-c4ccccc4)c(C)nn23)cc1	-12.5
COCCN=C1N[C@@H](c2cccc(C(F)(F)F)c2)C(C(=O)OC)=C(C)N1Cc1ccccc1	-11.9
COCCN1Cc2cccc(C(=O)NCC3CCN(CC(C)C)C3)c2C1=O (stereo not shown)	-29.2
CCOC(=O)C1CCN(S(=O)(=O)CCNC(=O)c2cccc(OC)c2)CC1	-19.5
Cc1ccc(CNC(=O)CCn2nc(-c3ccc(Cl)cc3)ccc2=O)cc1	-35.3
Cc1ccc(S(=O)(=O)N2CCC[C@H]2C(=O)OC(C)C(=O)Nc2ncc(Cl)cc2Cl)cc1 (stereo partly shown)	-34.5
COc1ccc(OC)c(-c2[nH]nc3c2C(c2ccco2)C(C#N)=C(N)O3)c1 (stereo not shown)	-11.7
COc1ccc(N(CC(C)C)S(=O)(=O)c2nnc(NC(=O)c3ccco3)s2)cc1	19.4
COCc1cc(=O)[nH]c(SCC(=O)c2ccccc2)n1	9.25
CCOc1cc(/C=N/NC(N)=O)cc(Br)c1OCc1ccccc1F	10.9
Cc1ccc(S(=O)(=O)CCN2CCC(O)(c3ccccc3)CC2)cc1	3.46
Cn1cnnc1SCC(=O)NNC(=O)COc1ccc(Cl)cc1	15.9
CC(=O)NC(c1cccc([N+](=O)[O-])c1)c1ccc2cccnc2c1O (stereo not shown)	9.13
Cc1c(NC(=O)COC(=O)c2ccc(S(=O)(=O)N3CCOCC3)cc2)c(=O)n(-c2ccccc2)n1C	9.3
Br.Cc1c(Nc2scc(-c3ccccc3)[n+]2-c2ccccc2)c(=O)n(-c2ccccc2)n1C	-32
CCOC(=O)C1CCN(C(=O)C(CC)c2ccccc2)CC1 (stereo not shown)	0.948
COc1ccc(NC(=S)NC(C)c2ccncc2)cc1OC (stereo not shown)	-6.54
COc1ccc2c(CCNC(N)=S)c[nH]c2c1	8.29
O=[N+]([O-])c1ccc(N2CCCC2)c2ncccc12	8.6
CCc1nc(SCC(=O)N2c3ccccc3Sc3ccccc32)c2ccccc2n1	5
COc1cc(CNc2ccc3c(c2)OCCO3)ccc1OCC(N)=O	14.2
CC1(C)CN(c2ccc(F)cc2)C1=O	22.4
CCOC(=O)[C@@H](C)N(Cc1ccc(OC)cc1)S(=O)(=O)N(Cc1ccccc1)[C@H](C(=O)OC)C(C)C	15.3
CCOc1ccccc1NC(=O)COC(=O)CSc1ccc(Cl)cc1	21.2
O=c1c2[nH]c3ccc(Br)cc3c2ncn1Cc1ccncc1	-4.79

Structure (SMILES)	hERG current change (%, negative = inhibition) at 10uM [%]
Nc1nc(Cl)nc2c1ncn2[C@@H]1O[C@H](CO)[C@@H](O)[C@H]1O	-0.00462
CCc1cc(=O)oc2c3c(cc(OCC(=O)NCCN4CCOCC4)c12)OC(C)(C)CC3	-19.3
CC(CCc1ccccc1)NC(=O)COC(=O)C(CCC(N)=O)NC(=O)c1ccc(F)cc1 (stereo not shown)	-12.2
CCOC(=O)C1(CC2CCCCO2)CCN(S(=O)(=O)c2c(C)nn(C)c2C)CC1 (stereo not shown)	7.49
COC(CNC(=O)c1ccc2nc(-c3ccccc3)c(-c3ccccc3)nc2c1)OC	1.32
COc1ccc(NCc2cccnc2)cc1	27.3
CCCCc1cc(O)c(CCCC)c(O)c1	-34.1
CC(NC(=O)COC(=O)C1CCN(c2ccc(C(F)(F)F)cn2)CC1)c1ccc(Br)cc1 (stereo not shown)	7.76
COc1ccc(C(C2C(=O)CC(C)(C)CC2=O)C2C(=O)CC(C)(C)CC2=O)cc1	2.75
COCCn1nnnc1SCC(=O)Nc1ccc2c(c1)OCO2	0.201
COc1ccc(CNC(=O)C(C)Sc2ccc(C)cc2)cc1 (stereo not shown)	3.65
CN(C(=O)Cc1c(C(=O)O)n(C)c2ccccc12)c1cccc(C(F)(F)F)c1	23
Cc1c(NC(=O)CSc2ccccc2Cl)c(=O)n(-c2ccccc2)n1C	-12.3
CCOc1ccccc1CNCCNC(=O)c1nonc1N.Cl	-13.5
CCN(Cc1ccccc1)C(c1ccc(C(F)(F)F)cc1)c1nnnn1C(C)(C)C (stereo not shown)	6.31
COc1cccc(CNC(=O)CC(NC(C)=O)c2ccccc2)c1 (stereo not shown)	16.2
CCCC(=O)Nc1ccc(C2C(=O)c3ccccc3C2=O)cc1	25.3
Cc1c(C)n2c(SCC(=O)N3CCOCC3)nnc2[nH]c1=O	-12.7
COc1ccc(C(=O)NCCCN2CCOCC2)cc1OC	-8.39
CCN(CC(=O)Nc1ccccc1OC)CC(=O)Nc1c(Cl)ccc(C)c1Cl	0.177
CCOC(=O)c1ccc(N2C(=O)C3CCCN3C2=S)cc1 (stereo not shown)	-5.27
Cc1cccc(N(Cc2cc3ccc(C)cc3[nH]c2=O)S(=O)(=O)c2ccccc2)c1	15.1
COCCNC(=O)C1CCN(C(=O)c2cc3sccc3n2Cc2ccc(F)cc2)CC1	-15.6
CCSc1nnc(-c2cccc(S(=O)(=O)N(C)C)c2)n1-c1cc(OC)ccc1OC	-49.8
COc1ccc(C(CNC(=O)c2ccc(S(=O)(=O)N3CCCC3)cc2)N(C)C)cc1OC (stereo not shown)	-0.631
COc1ccc(/C=C/C(=O)NC(=S)Nc2ccc(N3CCN(C(C)=O)CC3)cc2)cc1	12.2
CN(C1CCCCC1)C(CNS(=O)(=O)c1ccccc1)c1ccccc1 (stereo not shown)	-8.68
